This is an account of results in article PMC6637204, “Inactivating mutations and X-ray crystal structure of the tumor suppressor OPCML reveal cancer-associated functions” (Nature Communications, 2019).

The chains behind the UniProt entries cited, without tags or fusion partners. Where a name states a change or a piece, a line headed by the entry shows the natural chain unless it says otherwise. Residues count along the entry.
UniProt P30530: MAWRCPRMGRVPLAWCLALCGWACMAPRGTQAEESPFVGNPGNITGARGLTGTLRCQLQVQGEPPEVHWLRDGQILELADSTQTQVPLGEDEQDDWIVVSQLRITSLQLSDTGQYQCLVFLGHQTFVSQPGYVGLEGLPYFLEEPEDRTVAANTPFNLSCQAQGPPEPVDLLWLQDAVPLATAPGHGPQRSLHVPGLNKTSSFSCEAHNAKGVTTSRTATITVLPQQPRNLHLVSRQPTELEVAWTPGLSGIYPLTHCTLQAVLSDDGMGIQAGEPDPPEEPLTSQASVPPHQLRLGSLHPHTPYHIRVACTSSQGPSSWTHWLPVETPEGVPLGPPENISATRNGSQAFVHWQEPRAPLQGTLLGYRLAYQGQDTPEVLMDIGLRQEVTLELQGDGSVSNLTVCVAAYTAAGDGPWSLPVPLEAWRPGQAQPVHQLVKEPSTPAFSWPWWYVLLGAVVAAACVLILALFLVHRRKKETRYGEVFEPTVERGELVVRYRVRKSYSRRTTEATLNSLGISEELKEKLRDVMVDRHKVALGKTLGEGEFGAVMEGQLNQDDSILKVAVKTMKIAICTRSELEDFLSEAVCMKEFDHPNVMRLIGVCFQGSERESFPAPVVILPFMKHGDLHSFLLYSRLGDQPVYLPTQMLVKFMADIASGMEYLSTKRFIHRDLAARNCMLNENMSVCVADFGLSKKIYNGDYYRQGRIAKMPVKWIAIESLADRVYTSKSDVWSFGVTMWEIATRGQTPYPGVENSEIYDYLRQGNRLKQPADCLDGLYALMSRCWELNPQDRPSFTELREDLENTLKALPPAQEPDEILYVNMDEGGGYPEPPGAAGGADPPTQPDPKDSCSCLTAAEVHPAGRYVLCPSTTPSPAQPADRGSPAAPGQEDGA
AXL in SKOV3 and HCT116 cells (human (endogenous in SKOV3 and HCT116)): residues 26-894 of P30530
UniProt P11362: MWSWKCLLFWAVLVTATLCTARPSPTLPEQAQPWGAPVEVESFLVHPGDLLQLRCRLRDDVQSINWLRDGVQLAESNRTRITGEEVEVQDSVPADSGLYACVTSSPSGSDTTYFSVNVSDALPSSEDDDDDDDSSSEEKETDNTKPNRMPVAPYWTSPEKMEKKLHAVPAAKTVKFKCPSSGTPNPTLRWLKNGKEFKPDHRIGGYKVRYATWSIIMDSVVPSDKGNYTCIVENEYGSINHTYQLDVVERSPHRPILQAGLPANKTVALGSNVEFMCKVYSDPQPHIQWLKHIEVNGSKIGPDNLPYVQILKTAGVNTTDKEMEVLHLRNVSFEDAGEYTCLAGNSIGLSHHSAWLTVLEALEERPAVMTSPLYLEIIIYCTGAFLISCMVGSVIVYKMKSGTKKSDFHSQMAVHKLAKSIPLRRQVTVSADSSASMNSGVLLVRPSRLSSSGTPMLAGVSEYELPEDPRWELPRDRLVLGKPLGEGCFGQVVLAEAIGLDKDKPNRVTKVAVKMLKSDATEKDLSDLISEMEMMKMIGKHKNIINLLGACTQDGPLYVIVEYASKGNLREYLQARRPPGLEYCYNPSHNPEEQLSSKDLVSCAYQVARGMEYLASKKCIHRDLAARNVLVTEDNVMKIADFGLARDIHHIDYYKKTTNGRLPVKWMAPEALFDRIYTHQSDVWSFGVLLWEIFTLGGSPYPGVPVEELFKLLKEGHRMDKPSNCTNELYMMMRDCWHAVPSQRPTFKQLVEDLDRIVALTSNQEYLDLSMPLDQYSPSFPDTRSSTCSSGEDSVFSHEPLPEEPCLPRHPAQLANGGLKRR
FGFR1 in SKOV3 cells (human (endogenous in SKOV3)): residues 22-822 of P11362

In test [1] the target is T1, OPCML P95R in the pM vector (GAL4 DNA binding domain fusion) (human) (UniProt Q14982).
T1 sequence: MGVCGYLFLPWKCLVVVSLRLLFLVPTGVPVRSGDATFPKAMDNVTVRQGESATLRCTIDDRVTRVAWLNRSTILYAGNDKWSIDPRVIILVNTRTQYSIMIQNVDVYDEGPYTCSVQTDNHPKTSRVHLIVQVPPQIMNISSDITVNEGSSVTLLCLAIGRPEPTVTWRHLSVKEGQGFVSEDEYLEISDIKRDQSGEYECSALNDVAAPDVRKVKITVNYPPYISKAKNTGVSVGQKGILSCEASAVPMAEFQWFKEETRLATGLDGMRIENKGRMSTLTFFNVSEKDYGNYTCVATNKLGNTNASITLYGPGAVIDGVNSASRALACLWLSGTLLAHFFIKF
The test can be described thus: two-hybrid; mammalian 2-hybrid in COS-1 cells; OPCML in pM (GAL4 DNA binding domain), receptor extracellular domains in pVP16; pGAL4 Luc reporter, normalized to beta-galactosidase.

The target in test [2] is T2, OPCML in the pM vector (GAL4 DNA binding domain fusion) (human) (UniProt Q14982).
T2 sequence: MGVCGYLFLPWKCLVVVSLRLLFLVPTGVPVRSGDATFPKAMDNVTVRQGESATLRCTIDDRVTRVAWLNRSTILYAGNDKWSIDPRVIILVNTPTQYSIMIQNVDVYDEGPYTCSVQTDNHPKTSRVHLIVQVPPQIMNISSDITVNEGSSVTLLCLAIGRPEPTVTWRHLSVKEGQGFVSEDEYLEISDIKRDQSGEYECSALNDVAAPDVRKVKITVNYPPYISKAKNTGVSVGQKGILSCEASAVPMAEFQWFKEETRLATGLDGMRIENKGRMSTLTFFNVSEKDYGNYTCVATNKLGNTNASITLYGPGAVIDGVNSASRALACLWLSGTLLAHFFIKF
Described as above.

The target in test [3] is AXL in SKOV3 and HCT116 cells (human (endogenous in SKOV3 and HCT116)) (UniProt P30530). In words: proximity ligation; DuoLink PLA on fixed SKOV3 cells expressing WT or mutant OPCML; unstimulated or stimulated with GAS6 (AXL; 30 min, 3 h or 12 h) or FGF1 (FGFR1; 30 min or 3 h); mouse anti-OPCML and rabbit anti-receptor antibodies.
For test [4], the target named is FGFR1 in SKOV3 cells (human (endogenous in SKOV3)) (UniProt P11362). Described as above.
Test [5] concerns the target OPCML R65L expressed in transduced cancer cells (human) (UniProt Q14982). The test can be described thus: SDS-PAGE without heat denaturation, western blot; extracts of transduced cells run without prior heat denaturation, anti-OPCML blot.
Test [6] has as its target soluble recombinant OPCML R65L (residues 36-316) (human) (UniProt Q14982). The test can be described thus: SEC-MALLS; samples at 1 µg/µL, 1 mL/min in PBS pH 7.4, room temperature; both purified.
Test [7] has the same target. In words: SEC; gel filtration; dilutions equilibrated 24 h, 50 µL on Superdex 200 10/30 GL at 0.5 mL/min; peak elution volume against concentration fit to a monomer-dimer equilibrium (dimer to monomers); both purified. A general note: SEC sorts molecules by how far they enter the pores of the column.

Results are given in words; binding and its absence hold for the method and conditions named. For some assays here: Binding seen in cells or lysates may run through a third protein. Some results given as binding are weak or reduced against the parent protein; the word gives no strength. For some assays here: Sequences can lack the tags named with a protein.

“extracellular domain of AXL in the pVP16 vector (VP16 activation domain fusion) (from UniProt P30530 26-451) (domain or fragment)”: the binding entry in test [1] is “no binding”; in test [2], “binds”.

In the case of “extracellular domain of FGFR1 in the pVP16 vector (VP16 activation domain fusion) (from UniProt P11362 22-376) (domain or fragment)”, the binding entry in test [1] and in test [2] was “binds” throughout.

B1: wild-type OPCML expressed in transduced cancer cells (natural protein, human, UniProt Q14982 28-322, looked up)
chain: GVPVRSGDATFPKAMDNVTVRQGESATLRCTIDDRVTRVAWLNRSTILYAGNDKWSIDPRVIILVNTPTQYSIMIQNVDVYDEGPYTCSVQTDNHPKTSRVHLIVQVPPQIMNISSDITVNEGSSVTLLCLAIGRPEPTVTWRHLSVKEGQGFVSEDEYLEISDIKRDQSGEYECSALNDVAAPDVRKVKITVNYPPYISKAKNTGVSVGQKGILSCEASAVPMAEFQWFKEETRLATGLDGMRIENKGRMSTLTFFNVSEKDYGNYTCVATNKLGNTNASITLYGPGAVIDGVN
notes: OPCML, human, WT cDNA from pENTR4 shuttled to pLenti CMV Puro DEST; GPI-anchored, membrane-localized; also called WT OPCML; WT; source: SKOV3, PEA1, PEO1 and HCT116 cells, stably transduced (lentivirus, pLenti CMV Puro DEST); on cells or in lysate
With B1, the binding entry in test [3] and in test [4] was “binds” in each case.

B2: OPCML P95S expressed in transduced SKOV3 cells (protein, UniProt Q14982 28-322)
chain: GVPVRSGDATFPKAMDNVTVRQGESATLRCTIDDRVTRVAWLNRSTILYAGNDKWSIDPRVIILVNTSTQYSIMIQNVDVYDEGPYTCSVQTDNHPKTSRVHLIVQVPPQIMNISSDITVNEGSSVTLLCLAIGRPEPTVTWRHLSVKEGQGFVSEDEYLEISDIKRDQSGEYECSALNDVAAPDVRKVKITVNYPPYISKAKNTGVSVGQKGILSCEASAVPMAEFQWFKEETRLATGLDGMRIENKGRMSTLTFFNVSEKDYGNYTCVATNKLGNTNASITLYGPGAVIDGVN
B2: the binding entry in test [3] is listed as “no binding”.

B3: OPCML R65L expressed in transduced cancer cells (protein, UniProt Q14982 28-322)
chain: GVPVRSGDATFPKAMDNVTVRQGESATLRCTIDDRVTLVAWLNRSTILYAGNDKWSIDPRVIILVNTPTQYSIMIQNVDVYDEGPYTCSVQTDNHPKTSRVHLIVQVPPQIMNISSDITVNEGSSVTLLCLAIGRPEPTVTWRHLSVKEGQGFVSEDEYLEISDIKRDQSGEYECSALNDVAAPDVRKVKITVNYPPYISKAKNTGVSVGQKGILSCEASAVPMAEFQWFKEETRLATGLDGMRIENKGRMSTLTFFNVSEKDYGNYTCVATNKLGNTNASITLYGPGAVIDGVN
Consider B3, for which the binding result in test [5], in test [3] and in test [4] was “no binding” each time.

B4: OPCML N70H expressed in transduced cancer cells (protein, UniProt Q14982 28-322)
chain: GVPVRSGDATFPKAMDNVTVRQGESATLRCTIDDRVTRVAWLHRSTILYAGNDKWSIDPRVIILVNTPTQYSIMIQNVDVYDEGPYTCSVQTDNHPKTSRVHLIVQVPPQIMNISSDITVNEGSSVTLLCLAIGRPEPTVTWRHLSVKEGQGFVSEDEYLEISDIKRDQSGEYECSALNDVAAPDVRKVKITVNYPPYISKAKNTGVSVGQKGILSCEASAVPMAEFQWFKEETRLATGLDGMRIENKGRMSTLTFFNVSEKDYGNYTCVATNKLGNTNASITLYGPGAVIDGVN
Take B4: the binding entry in test [3] and in test [4] was “binds” in each case.

B5: OPCML P95R expressed in transduced cancer cells (protein, UniProt Q14982 28-322)
chain: GVPVRSGDATFPKAMDNVTVRQGESATLRCTIDDRVTRVAWLNRSTILYAGNDKWSIDPRVIILVNTRTQYSIMIQNVDVYDEGPYTCSVQTDNHPKTSRVHLIVQVPPQIMNISSDITVNEGSSVTLLCLAIGRPEPTVTWRHLSVKEGQGFVSEDEYLEISDIKRDQSGEYECSALNDVAAPDVRKVKITVNYPPYISKAKNTGVSVGQKGILSCEASAVPMAEFQWFKEETRLATGLDGMRIENKGRMSTLTFFNVSEKDYGNYTCVATNKLGNTNASITLYGPGAVIDGVN
Turning to B5, the binding entry in test [3] is “no binding”; in test [4], “binds”.

B6: OPCML P95L expressed in transduced SKOV3 cells (protein, UniProt Q14982 28-322)
chain: GVPVRSGDATFPKAMDNVTVRQGESATLRCTIDDRVTRVAWLNRSTILYAGNDKWSIDPRVIILVNTLTQYSIMIQNVDVYDEGPYTCSVQTDNHPKTSRVHLIVQVPPQIMNISSDITVNEGSSVTLLCLAIGRPEPTVTWRHLSVKEGQGFVSEDEYLEISDIKRDQSGEYECSALNDVAAPDVRKVKITVNYPPYISKAKNTGVSVGQKGILSCEASAVPMAEFQWFKEETRLATGLDGMRIENKGRMSTLTFFNVSEKDYGNYTCVATNKLGNTNASITLYGPGAVIDGVN
Take B6: the binding entry in test [3] is “no binding”.

B7: soluble recombinant OPCML R65L (residues 36-316) (domain or fragment, human, UniProt Q14982 36-316, looked up)
chain: ATFPKAMDNVTVRQGESATLRCTIDDRVTLVAWLNRSTILYAGNDKWSIDPRVIILVNTPTQYSIMIQNVDVYDEGPYTCSVQTDNHPKTSRVHLIVQVPPQIMNISSDITVNEGSSVTLLCLAIGRPEPTVTWRHLSVKEGQGFVSEDEYLEISDIKRDQSGEYECSALNDVAAPDVRKVKITVNYPPYISKAKNTGVSVGQKGILSCEASAVPMAEFQWFKEETRLATGLDGMRIENKGRMSTLTFFNVSEKDYGNYTCVATNKLGNTNASITLYGPGA
notes: OPCML, human, UniProt Q14982, residues 36-316 (D1-D3), clinical somatic mutation R65L; Same construct as m1 with R65L; PDB 5UV6 is the wild-type parent; ALVPR probably left at the C-terminus after thrombin (surmised); also called rR65L; source: Hi5 insect cells, baculovirus, secreted; purified (protein A, thrombin digestion, negative protein A, HiTrap Q, SEC); not shown: Fc (human IgG1, UniProt …)
For the molecule B7, the binding entry in test [6] is reported as “no binding (tested: 1 µg µL^−1)”; in test [7], “no binding (tested: 32 μM)”.
